Experimental data: PMC5892938
The other results are listed elsewhere or left out. At the low end of the ranking, values are background and their order means little.
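Further: DESeq read counts versus GST-SBP nonspecific binding control pulldown.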

Each sequence was assayed against GST-SBP-SLBP (stem-loop binding protein) (UniProt Q14493) (assay: targeted RNA Bind-n-Seq). Conditions: RBNS binding buffer: 25 mM Tris pH 7.5, 150 mM KCl, 3 mM MgCl2, 0.1% Tween, 0.5 mg/mL BSA, 1 mM DTT; 27 nM protein, 750 pM RNA pool; temperature not stated; high values mean tight binding.
In the case of “GGUCACGUCUCAAUCAACUCAACAGAGGGGGGGAAAACCCCUUUACCCUCAACCUCAACAGCUCGCAGUCAAG”, the binding signal (log2 fold change) is reported as -0.196.
Sequence “GGUCACGUCUCAAUCAACUCUUUCUCCAGGGAAAUCCCUGGUAUUUUCAACAGCUCGCAGUCAAG” has a binding signal (log2 fold change) of -0.0653.
“GGUCACGUCUCAAUCAACUCAAUCUCAGGAGUUUCCUCCUGCUUAGUCAACAGCUCGCAGUCAAG” showed a binding signal (log2 fold change) of -0.0715.
“GGUCACGUCUCAAUCAACUCUAUUCCAGGAGUUUUCUCCUGUUUAUUCAACAGCUCGCAGUCAAG” showed a binding signal (log2 fold change) of 0.0461.
For “GGUCACGUCUCAAUCAACUCCUCAGAGGGGGGGAAAACCCCUUUACCCUCCUACUCAACAGCUCGCAGUCAAG”, the binding signal (log2 fold change) was 0.136.
“GGUCACGUCUCAAUCAACUCAUUUCCCAGGGAAAUCCCUGGUAUAUUCAACAGCUCGCAGUCAAG” gave a binding signal (log2 fold change) of 0.00231.
Sequence “GGUCACGUCUCAAUCAACUCCUUAGAGGGGGGGAAAACCCCUUUACCCUCCAUUUCAACAGCUCGCAGUCAAG” has a binding signal (log2 fold change) of -0.351.
Sequence “GGUCACGUCUCAAUCAACUCUUUCUCAGGAGUUUACUCCUGCAUUCUCAACAGCUCGCAGUCAAG” has a binding signal (log2 fold change) of 0.057.
Sequence “GGUCACGUCUCAAUCAACUCUAUUCCCAGGGAAAUCCCUGGCAUUUUCAACAGCUCGCAGUCAAG” has a binding signal (log2 fold change) of -0.0376.
With “GGUCACGUCUCAAUCAACUCUAUCGAGGGGGGGAAAACCCCUUUGCCCUCACUAUCAACAGCUCGCAGUCAAG” the binding signal (log2 fold change) was -0.253.
Sequence “GGUCACGUCUCAAUCAACUCAUUUUCCAGGGAAAGCCCUGGCAAUUUCAACAGCUCGCAGUCAAG” has a binding signal (log2 fold change) of 0.224.
“GGUCACGUCUCAAUCAACUCAUUCCCAGGAGUUUGCUCCUGCUAAUUCAACAGCUCGCAGUCAAG” showed a binding signal (log2 fold change) of 0.105.
“GGUCACGUCUCAAUCAACUCUUACGAGGGGGGGAAAACCCCUUUACCCUCAACCUCAACAGCUCGCAGUCAAG” was tested, and the binding signal (log2 fold change) was -0.16.
Sequence “GGUCACGUCUCAAUCAACUCAUCCUCAGGAGUUUCCUCCUGCUAUCUCAACAGCUCGCAGUCAAG” has a binding signal (log2 fold change) of 0.286.
“GGUCACGUCUCAAUCAACUCAACUUCCAGGGAAAUCCCUGGCUAUUUCAACAGCUCGCAGUCAAG” gave a binding signal (log2 fold change) of 0.206.
“GGUCACGUCUCAAUCAACUCAUCGUCCAGGGAAAUCCCUGGUUUAUUCAACAGCUCGCAGUCAAG” was tested, and the binding signal (log2 fold change) was -0.0855.
“GGUCACGUCUCAAUCAACUCAGUCUCCAGGGAAAGCCCUGGUUAAUUCAACAGCUCGCAGUCAAG” showed a binding signal (log2 fold change) of 0.103.
“GGUCACGUCUCAAUCAACUCUUCUUCCAGGGAAAGCCCUGGCUUAUUCAACAGCUCGCAGUCAAG” gave a binding signal (log2 fold change) of 0.0973.
“GGUCACGUCUCAAUCAACUCAUUUCCCAGGGAAAACCCUGGCAAUUUCAACAGCUCGCAGUCAAG” showed a binding signal (log2 fold change) of 0.104.
“GGUCACGUCUCAAUCAACUCCAAUGAGGGGGGGAAAACCCCUUUACCCUCCACAUCAACAGCUCGCAGUCAAG” gave a binding signal (log2 fold change) of -0.219.
With “GGUCACGUCUCAAUCAACUCUCUAGAGGGGGGGAAAACCCCUUUACCCUCCGCAUCAACAGCUCGCAGUCAAG” the binding signal (log2 fold change) was -0.111.
“GGUCACGUCUCAAUCAACUCUAUCUCAGGAGUUUACUCCUGCUAACUCAACAGCUCGCAGUCAAG” gave a binding signal (log2 fold change) of 0.194.
“GGUCACGUCUCAAUCAACUCAUCUUCAGGAGUUUUCUCCUGCUUUGUCAACAGCUCGCAGUCAAG” was tested, and the binding signal (log2 fold change) was 0.0558.
Work on “GGUCACGUCUCAAUCAACUCAACGCCAGGAGUUUACUCCUGUAUUUUCAACAGCUCGCAGUCAAG” yielded a binding signal (log2 fold change) of 0.154.
“GGUCACGUCUCAAUCAACUCAAUCUCCAGGGAAACCCCUGGCAUACUCAACAGCUCGCAGUCAAG” was tested, and the binding signal (log2 fold change) was 0.0885.
Sequence “GGUCACGUCUCAAUCAACUCAUCUUCAGGAGUUUUCUCCUGUUAAUUCAACAGCUCGCAGUCAAG” has a binding signal (log2 fold change) of 0.095.
Work on “GGUCACGUCUCAAUCAACUCAUUCUCCAGGGAAAUCCCUGGCUUUUUCAACAGCUCGCAGUCAAG” yielded a binding signal (log2 fold change) of -0.184.
Work on “GGUCACGUCUCAAUCAACUCUCACGAGGGGGGGAAAACCCCUUUACCCUCUAUAUCAACAGCUCGCAGUCAAG” yielded a binding signal (log2 fold change) of 0.0435.
For “GGUCACGUCUCAAUCAACUCUUCCUCCAGGGAAAGCCCUGGCUAUGUCAACAGCUCGCAGUCAAG”, the binding signal (log2 fold change) was 0.049.
Sequence “GGUCACGUCUCAAUCAACUCAAUCCCAGGAGUUUCCUCCUGUUUACUCAACAGCUCGCAGUCAAG” has a binding signal (log2 fold change) of -0.095.
In the case of “GGUCACGUCUCAAUCAACUCUACUUCCAGGGAAACCCCUGGUAUUUUCAACAGCUCGCAGUCAAG”, the binding signal (log2 fold change) is reported as -0.392.
Sequence “GGUCACGUCUCAAUCAACUCUUUUUCCAGGGAAAGCCCUGGUAUUCUCAACAGCUCGCAGUCAAG” has a binding signal (log2 fold change) of -0.049.
“GGUCACGUCUCAAUCAACUCAUCCCCCAGGGAAAACCCUGGUUAUCUCAACAGCUCGCAGUCAAG” gave a binding signal (log2 fold change) of 0.114.
With “GGUCACGUCUCAAUCAACUCAAUCUCCAGGGAAAACCCUGGCUUUCUCAACAGCUCGCAGUCAAG” the binding signal (log2 fold change) was -0.0422.
In the case of “GGUCACGUCUCAAUCAACUCAGUCCCAGGAGUUUCCUCCUGCUAUUUCAACAGCUCGCAGUCAAG”, the binding signal (log2 fold change) is reported as -0.0518.
“GGUCACGUCUCAAUCAACUCAUCCUCCAGGGAAACCCCUGGCUUACUCAACAGCUCGCAGUCAAG” gave a binding signal (log2 fold change) of 0.0248.
For “GGUCACGUCUCAAUCAACUCAUCGCCAGGAGUUUUCUCCUGCUAUCUCAACAGCUCGCAGUCAAG”, the binding signal (log2 fold change) was -0.0669.
With “GGUCACGUCUCAAUCAACUCAUUCCCAGGAGUUUCCUCCUGUUAACUCAACAGCUCGCAGUCAAG” the binding signal (log2 fold change) was -0.0425.
In the case of “GGUCACGUCUCAAUCAACUCAAUCCCCAGGGAAAACCCUGGUUUACUCAACAGCUCGCAGUCAAG”, the binding signal (log2 fold change) is reported as 0.0534.
“GGUCACGUCUCAAUCAACUCAUUCUCAGGAGUUUACUCCUGCAUUUUCAACAGCUCGCAGUCAAG” gave a binding signal (log2 fold change) of -0.111.
Sequence “GGUCACGUCUCAAUCAACUCUUCCCCCAGGGAAAACCCUGGUUUACUCAACAGCUCGCAGUCAAG” has a binding signal (log2 fold change) of 0.197.
“GGUCACGUCUCAAUCAACUCUACUCCCAGGGAAAUCCCUGGUAAUCUCAACAGCUCGCAGUCAAG” was tested, and the binding signal (log2 fold change) was -0.0786.
Sequence “GGUCACGUCUCAAUCAACUCAGUCUCCAGGGAAAGCCCUGGCAAUUUCAACAGCUCGCAGUCAAG” has a binding signal (log2 fold change) of -0.219.
Sequence “GGUCACGUCUCAAUCAACUCUUCCCCCAGGGAAAGCCCUGGUAAUCUCAACAGCUCGCAGUCAAG” has a binding signal (log2 fold change) of 0.238.
“GGUCACGUCUCAAUCAACUCUACUCCAGGAGUUUACUCCUGCAAUCUCAACAGCUCGCAGUCAAG” was tested, and the binding signal (log2 fold change) was -0.047.
Sequence “GGUCACGUCUCAAUCAACUCAUUUUCAGGAGUUUCCUCCUGCUUUGUCAACAGCUCGCAGUCAAG” has a binding signal (log2 fold change) of 0.0348.
With “GGUCACGUCUCAAUCAACUCAUCGUCAGGAGUUUACUCCUGCUUUCUCAACAGCUCGCAGUCAAG” the binding signal (log2 fold change) was -0.0244.
With “GGUCACGUCUCAAUCAACUCAUGUCCAGGAGUUUUCUCCUGUUUUCUCAACAGCUCGCAGUCAAG” the binding signal (log2 fold change) was 0.0263.
Sequence “GGUCACGUCUCAAUCAACUCAUCCCCAGGAGUUUUCUCCUGUUUUUUCAACAGCUCGCAGUCAAG” has a binding signal (log2 fold change) of -0.105.
“GGUCACGUCUCAAUCAACUCAUUCCCCAGGGAAAACCCUGGUAAACUCAACAGCUCGCAGUCAAG” showed a binding signal (log2 fold change) of 0.156.
For “GGUCACGUCUCAAUCAACUCUUUCCCAGGAGUUUCCUCCUGUAAAUUCAACAGCUCGCAGUCAAG”, the binding signal (log2 fold change) was -0.019.
In the case of “GGUCACGUCUCAAUCAACUCCUCCGAGGGGGGGAAAACCCCUUUACCCUCAAUUUCAACAGCUCGCAGUCAAG”, the binding signal (log2 fold change) is reported as -0.59.
Sequence “GGUCACGUCUCAAUCAACUCAACUCCCAGGGAAAACCCUGGUAUUCUCAACAGCUCGCAGUCAAG” has a binding signal (log2 fold change) of 0.205.
“GGUCACGUCUCAAUCAACUCAUCGCCCAGGGAAAACCCUGGUUAUUUCAACAGCUCGCAGUCAAG” gave a binding signal (log2 fold change) of -0.0781.
In the case of “GGUCACGUCUCAAUCAACUCAUCUCCCAGGGAAAGCCCUGGCAAUUUCAACAGCUCGCAGUCAAG”, the binding signal (log2 fold change) is reported as -0.338.
“GGUCACGUCUCAAUCAACUCAUUCUCCAGGGAAAACCCUGGCAUUUUCAACAGCUCGCAGUCAAG” gave a binding signal (log2 fold change) of -0.0686.
In the case of “GGUCACGUCUCAAUCAACUCCCUAGAGGGGGGGAAAACCCCUUUACCCUCGAUAUCAACAGCUCGCAGUCAAG”, the binding signal (log2 fold change) is reported as 0.231.
“GGUCACGUCUCAAUCAACUCUAUUUCAGGAGUUUACUCCUGUAUUCUCAACAGCUCGCAGUCAAG” gave a binding signal (log2 fold change) of 0.0297.
Sequence “GGUCACGUCUCAAUCAACUCUUCUUCCAGGGAAAGCCCUGGCUAUCUCAACAGCUCGCAGUCAAG” has a binding signal (log2 fold change) of -0.14.
“GGUCACGUCUCAAUCAACUCAACGCCAGGAGUUUACUCCUGUUUAUUCAACAGCUCGCAGUCAAG” was tested, and the binding signal (log2 fold change) was -0.0292.
“GGUCACGUCUCAAUCAACUCAAUCCCCAGGGAAACCCCUGGCUUACUCAACAGCUCGCAGUCAAG” was tested, and the binding signal (log2 fold change) was -0.337.
Work on “GGUCACGUCUCAAUCAACUCUACUCCCAGGGAAAGCCCUGGCUAAUUCAACAGCUCGCAGUCAAG” yielded a binding signal (log2 fold change) of -0.0595.
In the case of “GGUCACGUCUCAAUCAACUCUAUCCCCAGGGAAAUCCCUGGCUAAUUCAACAGCUCGCAGUCAAG”, the binding signal (log2 fold change) is reported as 0.107.
“GGUCACGUCUCAAUCAACUCCACAGAGGGGGGGAAAACCCCUUUACCCUCCAUCUCAACAGCUCGCAGUCAAG” gave a binding signal (log2 fold change) of 0.416.
With “GGUCACGUCUCAAUCAACUCAAUUCCAGGAGUUUUCUCCUGUAUAUUCAACAGCUCGCAGUCAAG” the binding signal (log2 fold change) was 0.181.
“GGUCACGUCUCAAUCAACUCCCUCGAGGGGGGGAAAACCCCUUUACCCUCAAACUCAACAGCUCGCAGUCAAG” was tested, and the binding signal (log2 fold change) was 0.251.
“GGUCACGUCUCAAUCAACUCAUCGUCCAGGGAAAACCCUGGUAUAUUCAACAGCUCGCAGUCAAG” showed a binding signal (log2 fold change) of 0.0336.
Work on “GGUCACGUCUCAAUCAACUCUUCUCCCAGGGAAAACCCUGGCAUACUCAACAGCUCGCAGUCAAG” yielded a binding signal (log2 fold change) of 0.0953.
“GGUCACGUCUCAAUCAACUCUUUCCCAGGAGUUUUCUCCUGCUAUUUCAACAGCUCGCAGUCAAG” showed a binding signal (log2 fold change) of 0.00719.
In the case of “GGUCACGUCUCAAUCAACUCUUAAGAGGGGGGGAAAACCCCUUUGCCCUCACCAUCAACAGCUCGCAGUCAAG”, the binding signal (log2 fold change) is reported as -0.06.
Sequence “GGUCACGUCUCAAUCAACUCAAUCCCCAGGGAAAACCCUGGCUUUUUCAACAGCUCGCAGUCAAG” has a binding signal (log2 fold change) of 0.263.
“GGUCACGUCUCAAUCAACUCAACUCCAGGAGUUUUCUCCUGCAAAUUCAACAGCUCGCAGUCAAG” was tested, and the binding signal (log2 fold change) was -0.131.
For “GGUCACGUCUCAAUCAACUCUUUCUCCAGGGAAACCCCUGGUAAUUUCAACAGCUCGCAGUCAAG”, the binding signal (log2 fold change) was 0.052.
In the case of “GGUCACGUCUCAAUCAACUCAUCGUCAGGAGUUUACUCCUGUAUUCUCAACAGCUCGCAGUCAAG”, the binding signal (log2 fold change) is reported as 0.0596.
